About 6,000 (1.7%) of roughly 360,000 compounds were called active. The shares of active, inactive and inconclusive entries below differ from those in the screen. Calls follow the shape of the dose curve; as a rule, active = well fitted cell-killing curve with a large enough effect; inconclusive = small, poorly fitted or top-dose-only effect, or effect the other way; inactive = flat fitted curve, though single readings scatter. No potency is given beside an inconclusive call; the fits are too rough.
Test: qHTS for induction of synthetic lethality in tumor cells producing 2HG: qHTS for the HT-1080-NT fibrosarcoma cell line;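 also: NT is the 2HG producing partner of a matched IDH1 knockdown line; nearly all actives have a fitted effect of over 55% in size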;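 as to activity, negative = less viability: 0% = DMSO-treated cells and -100% = media-only wells without cells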
Conditions: HT-1080-NT fibrosarcoma viability, CellTiter-Glo ATP luminescence, 48 h; activity, negative = less viability: at 46.1 µM (top of the series) unless noted
In short: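 750 cells/well, RPMI + 5% FBS; 2 h settle, compound pin-transfer, 48 h at 37 degrees C. CellTiter-Glo 10 min RT, luminescence. Normalized to DMSO and media-only wells.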
Potency is read from the fitted curve at half-maximal effect; tags tell the direction and shape of the fitted curve.

Structure (SMILES)	activity, negative = less viability	Potency
COc1cccc(N2CCN(C(=O)c3oc4ccccc4c3NC(=O)Cc3ccc(OC)c(OC)c3)CC2)c1	inactive: -6.29%	–
COc1cc(OC)c(NC(=O)CCc2nc(-c3ccc(C)cc3)no2)cc1Cl	inactive: -3.47%	–
COC(=O)c1ccc(Nc2cc(C)nc3ccccc23)cc1	–	active: 18.4 µM
Cc1cccc(N2CCN(C(=O)c3cccc(N4C(=O)C5C6C=CC(C6)C5C4=O)c3)CC2C)c1 (stereo not drawn)	–	inconclusive [cytotoxic, single point]
Cc1ccc(CCNC(=O)c2cccc(N3CCCC3=O)c2)cc1	inconclusive: 18.5%	–
CCN(CC)S(=O)(=O)c1cc(NC(=O)C2CCN(c3ncnc4sc(C)c(C)c34)CC2)ccc1Cl	–	inconclusive [cytotoxic, full curve]
CCC1CCCCN1Cc1c(O)ccc2c(=O)c(-c3ccccc3)coc12 (stereo not drawn)	–	inconclusive [cytotoxic, single point]
COC(=O)Cn1cnc2scc(-c3ccc(C)cc3)c2c1=O	inactive: -0.804%	–
CC(OC(=O)CNC(=O)c1ccc(F)cc1)C(=O)Nc1ccc(S(=O)(=O)N2CCOCC2)cc1 (stereo not drawn)	inconclusive: 6.36%	–
CC(=O)Nc1ccc(-c2ccnc3c2CC(C)(C(=O)Nc2ccc(Cl)c(C(F)(F)F)c2)O3)cc1 (stereo not drawn)	–	inconclusive [cytotoxic, single point]
COc1ccc(Cn2cc(CN3CC(N(C)C)CS3(=O)=O)nn2)cc1 (stereo not drawn)	inactive: -1.34%	–
O=C1NC[C@H](Cc2ccc(O)cc2)N(C[C@H]2CCCN2C[C@H](Cc2ccc(O)cc2)N2C[C@H](Cc3ccc(O)cc3)N(CCc3ccccc3)C(=O)C2=O)C1=O	inactive: 12.9%	–
CCOC(=O)c1c(CN2CCN(C)CC2)n(C)c2cc(Br)c(OC)cc12	–	inconclusive [cytotoxic, single point]
CC1CCN(C(=O)Cn2nnc(-c3ccc(C(C)C)cc3)n2)CC1	inactive: 3.92%	–
NC(=O)C1CCN(c2nc(-c3ccccc3)nc3c2oc2ccccc23)CC1	–	inconclusive [cytotoxic, full curve, poor fit]
CCCCN(C(=O)c1ccc(S(=O)(=O)N(C)c2ccccc2)cc1)c1c(N)n(CCC)c(=O)[nH]c1=O	inactive: 0.558%	–
COc1cccc(C=C(C(C)=O)C(=O)c2ccccc2)c1	–	inconclusive [cytotoxic, single point]
OC(COC(c1ccccc1)c1ccccc1)CN1CCOCC1 (stereo not drawn)	inactive: 0.947%	–
CCOC(=O)[C@H]1[C@H]2COc3ccc(C)cc3[C@@H]2N2C(=O)c3cc(F)ccc3NC(=O)[C@@]12C	inactive: 3.99%	–
CCCCc1ccc(-c2csc(/C(C#N)=C\c3ccco3)n2)cc1	inactive: 2.05%	–
O=C(Nc1ccccc1Oc1cccnc1)C1CCCN(Cc2ccccc2O)C1 (stereo not drawn)	inactive: -24.9%	–
O=C1c2cc(Cl)ccc2-c2c(O)cc(Cl)cc21	–	active: 9.2 µM
O=C(CSc1nnc(-c2c[nH]c3ccccc23)o1)N(Cc1ccccc1)c1ccc(F)cc1	–	inconclusive [cytotoxic, single point]
COc1cccc(/C=C2\SC(=S)N(CCC(=O)NCCc3ccc(O)cc3)C2=O)c1	–	inconclusive [cytotoxic, single point]
Cc1cccc(-n2ncc(Cl)c(Cl)c2=O)c1	–	active: 5.8 µM

Structure (SMILES)	activity, negative = less viability	Potency
COc1cccc(CNC(=O)COC(=O)c2nn(C)c(=O)c3ccccc23)c1	inactive: 8.2%	–
O=C(Cc1coc2ccc3ccccc3c12)Nc1nnc(C2CC2)s1	inactive: -21%	–
OC(c1ccc(Cl)c(Cl)c1)c1ncc(-c2ccccc2C(F)(F)F)[nH]1 (stereo not drawn)	–	inconclusive [cytotoxic, partial curve]
CC1CCCCN1C(=O)CSc1nnc(-c2cccnc2)n1C1CCCCC1 (stereo not drawn)	inactive: 11.8%	–
O=C(Nc1ccccc1Oc1ccccc1)C1=COCCO1	inactive: 0%	–
CC(=O)NCCNC(=O)c1ccc(Sc2ccccc2)c([N+](=O)[O-])c1	inactive: -3.3%	–
CCOC(=O)N(C)c1c(CC)nc2c(OCc3ccc(Cl)cc3Cl)cccn12	–	inconclusive [cytotoxic, single point]
C[C@H](CO)N1C[C@H](C)[C@@H](CN(C)S(=O)(=O)c2ccccc2)Oc2ccc(NC(=O)CCN3CCOCC3)cc2C1=O	inactive: 2.7%	–
O=C(/C=C/c1cccnc1)c1ccc(F)c(F)c1	–	inconclusive [cytotoxic, single point]
CCOC(=O)c1c(C)c(C(=O)N2CCN(c3ccccc3)CC2)c(C)n1C	inactive: -0.196%	–
CCCCN(C)CCNC(=O)c1ccc(Cn2c(=S)[nH]c3ccc(Br)cc3c2=O)cc1	–	active: 20.6 µM
CCOC(=O)c1cc(-c2ccccc2)nc2c1c(C)nn2-c1ccccn1	–	inconclusive [cytotoxic, single point]
CC(C)C[C@H]1CNC(=S)N1C[C@H]1CCCN1C[C@H](Cc1ccc(O)cc1)N1C[C@H](Cc2ccc(O)cc2)N(CC2CCCCCC2)C1=S	–	active: 11.6 µM
O=C(O)c1cccc2c(-c3ccccc3)c(-c3ccccc3)[nH]c12	–	inconclusive [cytotoxic, full curve, poor fit]
CC(=O)O[C@@H]1C[C@H]2C(C)(C)C(=O)C=C[C@]2(C)[C@H]2CC[C@@]3(C)[C@H](c4ccoc4)OC(=O)[C@H]4O[C@]43[C@@]21C	–	inconclusive [cytotoxic, partial curve]
O=[N+]([O-])c1cc([N+](=O)[O-])c2c(=Nc3ccccc3)n(-c3ccccc3)n(O)c2c1	–	inconclusive [cytotoxic, single point]
CCN(CC)S(=O)(=O)c1cccc2cccnc12	inactive: -1.97%	–
O=C1[C@H]2[C@@H](c3ccc(F)cc3)N3C(=O)N(c4cccc(Br)c4)C(=O)[C@@]3(Cc3ccccc3)[C@H]2C(=O)N1C1CCCCC1	inactive: 2.31%	–
O=S1(=O)CCS(=O)(=O)C1c1ccccc1	–	active: 23.1 µM
S=C(NC1CCCC1)N1CCN(C/C=C/c2ccccc2)CC1	–	inconclusive [cytotoxic, single point]
COc1cc(O)oc1C=Nc1ccc(C(F)(F)F)cc1	–	inconclusive [rising, partial curve]
COc1ccc(-c2c(C#N)c(N)n(N)c(=O)c2C#N)cc1Cl	inactive: -12.3%	–
CCOc1cc(CNCCO)cc(Br)c1OCc1ccc(Cl)cc1	–	inconclusive [cytotoxic, single point]
CCC(=O)Nc1nc2ccccc2n1CCN1CCOCC1	inactive: 8.86%	–
CCOc1ccccc1NC(=O)c1cc(-c2cc(OC)c(OC)c(OC)c2)nc2ccccc12	inactive: -18.3%	–

Structure (SMILES)	activity, negative = less viability	Potency
O=C(O)CCCCCNC(=O)CSc1nnc(-c2ccco2)n1-c1ccccc1	inactive: 5.75%	–
CCN(CC)c1ccc(C2NC(=O)c3ccccc3N2)cc1 (stereo not drawn)	–	inconclusive [cytotoxic, single point]
CC(=O)c1ccc(OCc2nnn(CC(=O)NS(=O)(=O)c3ccc(C)cc3)c2-c2ccccc2)cc1	–	inconclusive [rising, single point]
CC1CNC(=S)N(c2ccc(F)cc2)C1=O (stereo not drawn)	inactive: -9.34%	–
CC(=O)c1ccc(NC(=O)NNS(=O)(=O)c2ccc(F)cc2)cc1	inactive: -10.3%	–
CC(C)C(=O)N1CCN(c2ccccc2NC(=O)COc2ccc(C3CCCCC3)cc2)CC1	–	inconclusive [cytotoxic, single point]
CCOc1ccc2nc3cc(NCc4ccc(OC)cc4)ccc3c(N)c2c1	–	inconclusive [cytotoxic, single point]
Cc1ccc(-c2nc3ccccc3[nH]2)cc1NC(=O)c1ccco1	inactive: 16.2%	–
Cc1ccccc1Nc1nc(NCc2ccco2)c2ccccc2n1	–	inconclusive [cytotoxic, single point]
O=C1CSC(=S)N1/N=C/c1cccnc1	inactive: 11.9%	–
N=C(N1CCCc2ccccc21)N1CCCc2ccccc21	–	inconclusive [cytotoxic, partial curve]
CCOc1cc(/C=C2\C(=N)N3N=C(S(C)(=O)=O)SC3=NC2=O)ccc1OCCOc1cccc(OC)c1	–	inconclusive [cytotoxic, partial curve]
CC(=O)N(C(C)=O)n1c(C)nc2sc3c(c2c1=O)CCCC3	–	inconclusive [cytotoxic, single point]
O=C1[C@@H]2Cc3c([nH]c4ccccc34)C(c3ccccc3)N2C(=O)CN1CCO (stereo partly drawn)	inactive: 0.398%	–
Cc1cccc(C(=O)OCC(=O)Nc2nccs2)c1	–	inconclusive [rising, partial curve]
OC(CNCC1CCCO1)Cn1c2ccc(Cl)cc2c2cc(Cl)ccc21 (stereo not drawn)	–	active: 25.9 µM
CCC(C)Nc1ccc(NC(C)CC)cc1 (stereo not drawn)	–	active: 3.66 µM
Cc1ccccc1-n1cnc2c(sc3nc(N4CCOCC4)c4c(c32)CCCC4)c1=O	–	inconclusive [cytotoxic, single point]
Oc1cc2c(cc1C(c1ccc(Cl)c(Cl)c1)N1CCCC1)OCO2 (stereo not drawn)	–	inconclusive [cytotoxic, single point]
COc1cc2c(cc1OC)C1(Nc3c-2c(Cc2ccccc2)nn3-c2ccccc2)C(=O)Nc2ccccc21 (stereo not drawn)	–	inconclusive [cytotoxic, partial curve]
O=C(Nc1nc(-c2ccccc2)cs1)c1ccc(N2CCOCC2)c([N+](=O)[O-])c1	–	inconclusive [cytotoxic, single point]
O=C(Cn1c(/C=C/c2ccccc2)nc2ccccc21)Nc1ccc(F)cc1	–	inconclusive [cytotoxic, partial curve, poor fit]
COc1cc(C(=O)Nc2ccc(Cl)c(C(F)(F)F)c2)cc(OC)c1OC	–	inconclusive [cytotoxic, single point]

— PubChem BioAssay AID686970 (National Center for Advancing Translational Sciences (NCATS), 2013)
